According to the supplement of paper PMC4604168 (melanoma cell lines):
The other results are listed elsewhere or left out. Many values rest on one well or one pass, so single values are uncertain.
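Also: cell number obtained by counting DAPI-stained nuclei in high-throughput microscope images with image analysis software, screen run in 1,536-well plates.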

What follows are molecules tested on A101D (assay: cell count relative to DMSO control; melanoma cells; higher = more viable cells). Conditions: library dose: low library concentration; 72 h.
Work on `Cn1c(Nc2ccc(C(F)(F)F)cc2)nc2cc(Oc3ccnc(-c4ncc(C(F)(F)F)[nH]4)c3)ccc21` + O=C(Nc1ccccc1)c1cc([N+](=O)[O-])ccc1Cl [GW9662] (first compound 0.08 µM, partner dose 2 µM) yielded a cell count of 74.1%. Molecule `C#Cc1cccc(Nc2ncnc3cc(OCCOC)c(OCCOC)cc23)c1` [erlotinib] + CC(C)CCN1c2nc(Nc3cc(F)c(O)c(F)c3)ncc2N(C)C(=O)C1C [BID1870] (first compound 0.8 µM, partner dose 0.2 µM) has a cell count of 76.7%. `Nc1cccc2c1CN(C1CCC(=O)NC1=O)C2=O` (stereo not given) [lenalidomide] + O=C(O)C(=O)Nc1sc2c(c1C(=O)O)CCNC2 [TCS401] (first compound 1 µM, partner dose 1.66667 µM) showed a cell count of 103%. Work on `C#Cc1cccc(Nc2ncnc3cc(OCCOC)c(OCCOC)cc23)c1` [erlotinib] + COC(=O)c1sccc1S(=O)(=O)Nc1ccc(Nc2ccccc2)cc1OC [GSK0660] (first compound 0.8 µM, partner dose 1 µM) yielded a cell count of 103%. `COCC[n+]1c2c(n(Cc3cnccn3)c1C)C(=O)c1ccccc1C2=O` + COC(=O)c1sccc1S(=O)(=O)Nc1ccc(Nc2ccccc2)cc1OC [GSK0660] (first compound 0.0004 µM, partner dose 1 µM) showed a cell count of 95.3%. `COCC[n+]1c2c(n(Cc3cnccn3)c1C)C(=O)c1ccccc1C2=O` + c1cc(-c2cnn3cc(-c4ccc(OCCN5CCCCC5)cc4)cnc23)ccn1 [Dorsomorphin] (first compound 0.0004 µM, partner dose 0.4 µM) was tested, and the cell count was 96.5%. For `COCC[n+]1c2c(n(Cc3cnccn3)c1C)C(=O)c1ccccc1C2=O` + COc1cc(N2CCC(N3CCN(C)CC3)CC2)ccc1Nc1ncc(Cl)c(Nc2ccccc2S(=O)(=O)C(C)C)n1 [NVP-TAE684] (first compound 0.0004 µM, partner dose 0.08 µM), the cell count was 101%. `Cn1c(Nc2ccc(C(F)(F)F)cc2)nc2cc(Oc3ccnc(-c4ncc(C(F)(F)F)[nH]4)c3)ccc21` + COc1ccc(-c2ccc3c(N4CCOCC4)nc(N4C[C@@H](C)O[C@@H](C)C4)nc3n2)cc1CO [KU0063794] (first compound 0.08 µM, partner dose 0.02 µM) showed a cell count of 60.4%. With `C#Cc1cccc(Nc2ncnc3cc(OCCOC)c(OCCOC)cc23)c1` [erlotinib] + Oc1cc(-c2nc(-c3ccccc3)[nH]c2-c2ccncc2)ccc1Cl [L779450] (first compound 0.8 µM, partner dose 0.2 µM) the cell count was 95.9%. With `Nc1cccc2c1CN(C1CCC(=O)NC1=O)C2=O` (stereo not given) [lenalidomide] + O=C(Nc1ccccc1)c1cc([N+](=O)[O-])ccc1Cl [GW9662] (first compound 1 µM, partner dose 2 µM) the cell count was 94.8%. Molecule `Nc1cccc2c1CN(C1CCC(=O)NC1=O)C2=O` (stereo not given) [lenalidomide] + Oc1cc(-c2nc(-c3ccccc3)[nH]c2-c2ccncc2)ccc1Cl [L779450] (first compound 1 µM, partner dose 0.2 µM) has a cell count of 114%. For `O=C(CCCCCCC(=O)Nc1ccccc1)NO` [vorinostat] + Oc1cc(-c2nc(-c3ccccc3)[nH]c2-c2ccncc2)ccc1Cl [L779450] (first compound 0.08 µM, partner dose 0.2 µM), the cell count was 100%. With `Nc1cccc2c1CN(C1CCC(=O)NC1=O)C2=O` (stereo not given) [lenalidomide] + COc1cc(N2CCC(N3CCN(C)CC3)CC2)ccc1Nc1ncc(Cl)c(Nc2ccccc2S(=O)(=O)C(C)C)n1 [NVP-TAE684] (first compound 1 µM, partner dose 0.08 µM) the cell count was 106%. In the case of `COCC[n+]1c2c(n(Cc3cnccn3)c1C)C(=O)c1ccccc1C2=O` + Cc1cc([N+](=O)[O-])ccc1NS(=O)(=O)c1cc(Cl)ccc1Cl [FH535] (first compound 0.0004 µM, partner dose 1 µM), the cell count is reported as 90.6%. With `O=C(CCCCCCC(=O)Nc1ccccc1)NO` [vorinostat] + COC(=O)c1sccc1S(=O)(=O)Nc1ccc(Nc2ccccc2)cc1OC [GSK0660] (first compound 0.08 µM, partner dose 1 µM) the cell count was 113%. Molecule `Nc1cccc2c1CN(C1CCC(=O)NC1=O)C2=O` (stereo not given) [lenalidomide] + Cn1cc(/C=C2\C(=O)Nc3cccnc32)c2ccccc21 [GW441756] (first compound 1 µM, partner dose 0.4 µM) has a cell count of 96.1%. In the case of `C#Cc1cccc(Nc2ncnc3cc(OCCOC)c(OCCOC)cc23)c1` [erlotinib] + COc1ccc2c(c1)CCC1C2CCC2(C)C(NCCCCCCN3C(=O)C=CC3=O)CCC12 [U73122] (first compound 0.8 µM, partner dose 0.4 µM), the cell count is reported as 83%. Molecule `COCC[n+]1c2c(n(Cc3cnccn3)c1C)C(=O)c1ccccc1C2=O` + O=C(O)C(=O)Nc1sc2c(c1C(=O)O)CCNC2 [TCS401] (first compound 0.0004 µM, partner dose 1.66667 µM) has a cell count of 98.3%. Work on `O=C(CCCCCCC(=O)Nc1ccccc1)NO` [vorinostat] + O=S(=O)(c1ccccc1)N(CC(F)(F)F)c1ccc(C(O)(C(F)(F)F)C(F)(F)F)cc1 [T0901317] (first compound 0.08 µM, partner dose 1.4 µM) yielded a cell count of 105%. For `COCC[n+]1c2c(n(Cc3cnccn3)c1C)C(=O)c1ccccc1C2=O` + O=C(Nc1ccccc1)c1cc([N+](=O)[O-])ccc1Cl [GW9662] (first compound 0.0004 µM, partner dose 2 µM), the cell count was 111%.
